Results: publication PMC6054203
These are yes or no findings as the source states them, for the method shown. Where a sequence is shown, tags or fusion partners need not be part of it.

Molecular target: T1, CIPK24, two-hybrid fusion (Arabidopsis) (UniProt Q9LDI3)
T1 sequence: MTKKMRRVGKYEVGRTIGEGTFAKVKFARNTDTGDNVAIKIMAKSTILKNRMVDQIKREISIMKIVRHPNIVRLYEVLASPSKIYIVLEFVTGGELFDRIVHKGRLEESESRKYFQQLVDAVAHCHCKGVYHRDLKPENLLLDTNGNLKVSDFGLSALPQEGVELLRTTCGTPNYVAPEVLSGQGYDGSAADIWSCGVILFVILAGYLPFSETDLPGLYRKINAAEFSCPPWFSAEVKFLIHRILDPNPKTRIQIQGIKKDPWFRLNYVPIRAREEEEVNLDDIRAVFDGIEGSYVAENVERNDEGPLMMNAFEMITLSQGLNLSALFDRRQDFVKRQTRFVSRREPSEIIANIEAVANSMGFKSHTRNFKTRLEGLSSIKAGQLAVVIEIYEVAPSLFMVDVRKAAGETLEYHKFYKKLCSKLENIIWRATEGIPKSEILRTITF
Experiment: two-hybrid; yeast strain AH109 co-transformed with AD (pGAD.GH) and BD (pGBT9.BS) fusions; growth on SC-LWH and on SC-LWH with 0.5 and 3.0 mM 3-AT

- binding: no binding
B1: AP2C1 (protein phosphatase 2C), two-hybrid fusion (enzyme, UniProt O80871 1-396)
chain: MSCSVAVCNSPVFSPSSSLFCNKSSILSSPQESLSLTLSHRKPQTSSPSSPSTTVSSPKSPFRLRFQKPPSGFAPGPLSFGSESVSASSPPGGVLKRKRPTRLDIPIGVAGFVAPISSSAAVAATPREECREVEREGDGYSVYCKRGRREAMEDRFSAITNLHGDRKQAIFGVYDGHGGVKAAEFAAKNLDKNIVEEVVGKRDESEIAEAVKHGYLATDASFLKEEDVKGGSCCVTALVNEGNLVVSNAGDCRAVMSVGGVAKALSSDHRPSRDDERKRIETTGGYVDTFHGVWRIQGSLAVSRGIGDAQLKKWVIAEPETKISRIEHDHEFLILASDGLWDKVSNQEAVDIARPLCLGTEKPLLLAACKKLVDLSASRGSSDDISVMLIPLRQFI
